Data on 90 molecules can be found in PubChem BioAssay AID360 (National Center for Advancing Translational Sciences (NCATS), 2006).

Screen size: about 48,000 compounds; about 550 (1.1%) were called active. Inconclusive results (about 4%) are left out. No stated cut-off is given here; in the data, active means potency below about 15 µM; inconclusive means mostly about 16 µM to 33 µM; inactive means weaker than that. Some of the results follow.
Potency means the concentration at half of the fitted maximal effect.

The target in the assay is Lysosomal acid glucosylceramidase (Homo sapiens) (UniProt P04062). Put plainly: Glucocerebrosidase.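 Further: the screen sought inhibitors.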 The note with it: purified enzyme, resorufin glucoside fluorescence (screen aimed at inhibitors), 20 min; series mostly up to 77 µM. The essentials: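 Wild-type enzyme at 0.2 nM final in 50mM citric acid/KH2PO4, 10mM sodium taurocholate, 0.01% tween-20, pH 5.9, with resorufin beta-D-glucopyranoside at 30 uM final. Compounds titrated, 20 min at RT, red fluorescence read; AC50 from titration.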
UniProt P04062, sequence (P04062 whole entry, looked up): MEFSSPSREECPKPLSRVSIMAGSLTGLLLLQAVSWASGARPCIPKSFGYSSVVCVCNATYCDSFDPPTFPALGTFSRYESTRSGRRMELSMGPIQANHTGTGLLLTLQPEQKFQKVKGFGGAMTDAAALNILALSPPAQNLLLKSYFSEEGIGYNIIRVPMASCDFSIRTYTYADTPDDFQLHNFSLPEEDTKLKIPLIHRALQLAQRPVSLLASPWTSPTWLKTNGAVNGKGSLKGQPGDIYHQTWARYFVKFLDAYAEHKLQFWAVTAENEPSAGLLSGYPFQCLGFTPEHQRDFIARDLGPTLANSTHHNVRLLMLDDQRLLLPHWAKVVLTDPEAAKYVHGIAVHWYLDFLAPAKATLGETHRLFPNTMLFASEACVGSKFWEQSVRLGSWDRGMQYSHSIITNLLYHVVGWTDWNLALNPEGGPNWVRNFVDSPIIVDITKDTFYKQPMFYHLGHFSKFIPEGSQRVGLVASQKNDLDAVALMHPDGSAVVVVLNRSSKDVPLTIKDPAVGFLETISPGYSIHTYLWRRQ
As to `Cc1ccc(C(=O)NC2CC(C)(C)NC(C)(C)C2)cc1C`, the Potency was inactive: > 76.9 µM.
The figure for `CCOC(=O)CN(C(=O)CSc1nnc(CNc2ccc(C)cc2C)o1)c1ccccc1` is inactive: > 76.9 µM; for `CC(C)Oc1ccc(C(CC(=O)O)NC(=O)C2CCCCC2)cc1` (stereo not given) it is inactive: > 76.9 µM; for `COc1cccc(NC(=O)CCSc2nnc3scc(-c4ccccc4)n23)c1` it is inactive: > 76.9 µM.
`O=C(CC1Nc2ccccc2NC1=O)NCCCN1CCCCCC1` (stereo not given): the Potency is inactive: > 76.9 µM.
Consider `Cc1cc(N(C)C)c(C#N)c(NCc2ccccc2)n1`, for which the Potency is inactive: > 76.9 µM.
The figure for `CCOc1ccc(C2/C(=C(\O)c3cccc(OC)c3)C(=O)C(=O)N2c2cc(C)on2)cc1OC` (stereo not given) is inactive: > 76.9 µM; for `O=C(CN1C(=O)NC2(CCCC2)C1=O)N1CCN(C(=O)c2ccco2)CC1` it is inactive: > 76.9 µM.
Turning to `O=C(Nc1nc2ccccc2[nH]1)C1CC(=O)N(c2ccc3c(c2)OCCO3)C1` (stereo not given), the Potency is inactive: > 76.9 µM.
In the case of `COC(=O)C(O)(CC(=O)Nc1ccc(OC(F)(F)F)cc1)C(F)(F)F` (stereo not given), the Potency was inactive: > 76.9 µM.
With `Cc1ccccc1OCCN1C(=O)NC2(CCc3ccccc32)C1=O` (stereo not given), the Potency is inactive: > 76.9 µM.
`O=C(Oc1ccc(-c2nnco2)cc1)N(c1ccccc1)c1ccccc1`: the Potency was inactive: > 76.9 µM.
As to `Cc1ccc(C)c(NC2=CC(=O)CC(C)(C)C2)c1C#N`, the Potency is inactive: > 76.9 µM.
Turning to `COCCCNC(=O)CCCn1c(=O)c2ccccc2n(CC(=O)Nc2c(C)cc(C)cc2C)c1=O`, the Potency was inactive: > 76.9 µM.
In the case of `COCCn1cnc2c1c(=O)n(CC(=O)c1ccc3c(c1)OCCO3)c(=O)n2Cc1ccccc1`, the Potency is inactive: > 76.9 µM.
As to `N#Cc1ccc(Oc2ccc(C(N)=O)cc2)cc1C#N`, the Potency was inactive: > 76.9 µM.
Take `CCN(CC)c1nc2n(c(=O)n1)CCN2CC`: the Potency was inactive: > 76.9 µM.
Regarding `Cc1cc(C)nc(Nc2ccc(N3CCOCC3)cc2)n1`, the Potency is inactive: > 76.9 µM.
As for `CCCc1nc2ccccc2c(=O)n1/N=C/c1ccccc1O`, the Potency was inactive: > 76.9 µM.
In the case of `CC(=O)c1c(C)[nH]c(C(=O)CSc2nnc(-c3ccco3)n2Cc2ccccc2)c1C`, the Potency is inactive: > 76.9 µM.
On to `Cc1cc(C(N)=O)c2ccccc2n1`, for which the Potency is inactive: > 76.9 µM.
In the case of `COc1cccc(CCC(=O)O)c1OC`, the Potency is inactive: > 76.9 µM.
The value for `CCOC(=O)C1=C(C)NC(=O)NC1/C=C/c1ccccc1` (stereo not given) was inactive: > 76.9 µM.
On to `N#Cc1nc(-c2ccco2)oc1N1CCc2ccccc2C1`, for which the Potency was inactive: > 76.9 µM.
For the molecule `CCOC(=O)c1c(NC(=O)CSc2nnc(-c3ccc(OC)cc3)o2)sc2c1CCC2`, the Potency was inactive: > 76.9 µM.
Turning to `CCOC(=O)CSc1nc2ccccc2c(=O)n1CC1COc2ccccc2O1` (stereo not given), the Potency is inactive: > 76.9 µM.
Consider `Cc1cc(C(=O)COC(=O)CCC(=O)c2ccc3c(c2)OCCO3)c(C)n1Cc1ccco1`, for which the Potency was inactive: > 76.9 µM.
Consider `CCNc1nc(Oc2ccc(=O)n(-c3ccccc3)n2)nc(N2CCOCC2)n1`, for which the Potency was inactive: > 76.9 µM.
For the molecule `Cc1cc(C)cc(OCC(=O)Nc2nonc2NC(=O)COc2cc(C)cc(C)c2)c1`, the Potency was inactive: > 76.9 µM.
With `Cc1cc(=O)n2[nH]c(COc3ccccc3)nc2n1`, the Potency was inactive: > 76.9 µM.
With `Cc1ccc(NC2SC(=O)N(Cc3cccc(C(=O)O)c3)C2=O)cc1` (stereo not given), the Potency was inactive: > 76.9 µM.
As to `O=C(NCc1ccccc1)C(c1cccs1)N(C(=O)c1csnn1)C1CC1` (stereo not given), the Potency is inactive: > 76.9 µM.
The figure for `Cc1ccc(-c2c3c(=O)n(C)c(=O)n(C)c3cn2-n2cnnc2)cc1` is inactive: > 76.9 µM; for `Cc1cc(C(=O)CSc2nnc(Nc3ccccc3F)s2)c(C)n1CC1CCCO1` (stereo not given) it is inactive: > 76.9 µM; for `COc1ccc(N2C(=O)C3C4C=CC(C4)C3C2=O)c(OC)c1` (stereo not given) it is inactive: > 76.9 µM.
Consider `Cc1ccc(Cn2ccc(NC(=O)c3nc4ncccn4n3)n2)cc1`, for which the Potency is inactive: > 76.9 µM.
As for `Cc1ccc(S(=O)(=O)NCCn2c(C)cc3ccccc32)cc1`, the Potency is inactive: > 76.9 µM.
With `CCCC(=O)Nc1ccc(C(=O)NCCCn2ccnc2)cc1`, the Potency was active: 6.73 µM.
Regarding `Cc1ccc(NCc2nnc(SCC(=O)NCc3ccco3)n2CC2CCCO2)cc1Cl` (stereo not given), the Potency is inactive: > 76.9 µM.
Regarding `Cc1ccccc1-c1nnc(SCC(=O)Nc2ccc(Cl)cc2)n1N`, the Potency is inactive: > 76.9 µM.
The value for `CCOc1cc(S(=O)(=O)N2CCC(Cc3ccccc3)CC2)c(OCC)cc1-n1cnnn1` was inactive: > 76.9 µM; that for `O=C(CCCCCN1C(=O)CCC1=O)Nc1ncn[nH]1` was inactive: > 76.9 µM; that for `CN(C)c1ccc(C(=O)Nc2ccc(S(=O)(=O)NC3=NCCCCC3)cc2)cc1` was inactive: > 76.9 µM.
For the molecule `O=C(Nc1ccc(F)cc1)NC1CCN(Cc2nnnn2Cc2ccco2)CC1`, the Potency is inactive: > 76.9 µM.
Regarding `O=c1cc(CO)oc(CN2CCC(Cc3ccccc3)CC2)c1O`, the Potency was inactive: > 76.9 µM.
The value for `Cc1ccc(C(=O)OCC(=O)N2CC(=O)Nc3ccccc32)s1` was inactive: > 76.9 µM; that for `CC(C)(C)n1ncc2c(=O)n(Cc3c(F)cccc3Cl)cnc21` was inactive: > 76.9 µM; that for `COCc1cc(C)nc(SCC(=O)Nc2cccc(C)c2)c1C#N` was inactive: > 76.9 µM.
Consider `CSc1ccc(-c2nnn(Cc3ccccn3)n2)cc1`, for which the Potency was inactive: > 76.9 µM.
`Nc1nc(-c2ccc(Br)s2)c(Br)s1`: the Potency is inactive: > 76.9 µM.
Consider `Cc1ccc(-c2csc3ncnc(Sc4nnc(CN5CCCCCC5=O)o4)c23)cc1`, for which the Potency is inactive: > 76.9 µM.
The figure for `COc1cc(OC)cc(-c2nc(-c3cc4cc(C)ccc4nc3OC)no2)c1` is inactive: > 76.9 µM; for `C=CCNC(=O)c1cc(=O)c2ccccc2o1` it is inactive: > 76.9 µM.
Regarding `CCN1C(=O)/C(=C/N2CC(C)CC(C)C2)SC1=S` (stereo not given), the Potency was inactive: > 76.9 µM.
For `COc1ccc2nc(NC(=O)CN(c3ccc(C)cc3)S(=O)(=O)c3c(C)nn(C)c3C)sc2c1`, the Potency was inactive: > 76.9 µM.
For the molecule `CSc1nc(C)cc(-n2ccc(=O)[nH]c2=O)n1`, the Potency was inactive: > 76.9 µM.
`CCCS(=O)(=O)N1CCCC(C(=O)NCc2ccc3c(c2)OCO3)C1` (stereo not given): the Potency is inactive: > 76.9 µM.
The value for `COc1ccc2c(c1)CCc1c(C(=O)NCCCn3ccnc3)noc1-2` was inactive: > 76.9 µM; that for `C=CCn1c(SCC(N)=O)nnc1-c1cccc(Br)c1` was inactive: > 76.9 µM.
The value for `O=c1cc(CO)oc(CN2CCN(c3ccccc3)CC2)c1O` was inactive: > 76.9 µM; that for `CCNC(=O)NC(=O)C(C)Oc1ccc(C(=O)OC)cc1` (stereo not given) was inactive: > 76.9 µM.
On to `COc1ccc(C2N(c3cc(C)on3)C(=O)C3CCCN32)cc1OC` (stereo not given), for which the Potency is inactive: > 76.9 µM.
In the case of `CCSc1nnc(-c2cccs2)o1`, the Potency is inactive: > 76.9 µM.
The figure for `O=C(CN1CCNCC1)Nc1ccccc1Cl` is inactive: > 76.9 µM.
Consider `CS(=O)(=O)N(Cc1ccc(F)cc1)Cc1nc2ccccc2c(=O)[nH]1`, for which the Potency is inactive: > 76.9 µM.
With `c1ccc(CCN2CCN(c3ncnc4c3cnn4-c3ccccc3)CC2)cc1`, the Potency is inactive: > 76.9 µM.
The value for `Cc1ccc(NCc2nnc(SCC(=O)N3CCCCC3)n2CC2CCCO2)c(C)c1` (stereo not given) was inactive: > 76.9 µM.
`CCCCCn1c(=O)c(C(=O)OCC)c(O)c2ccccc21`: the Potency is inactive: > 76.9 µM.
The figure for `Cc1cccc(NC(=O)c2oc3c(c2C)C(=O)CC(C)(C)C3)n1` is inactive: > 76.9 µM; for `Cc1ccc(N2CC(C(=O)NCc3ccc4c(c3)OCO4)CC2=O)cc1C` (stereo not given) it is inactive: > 76.9 µM.
The value for `Cc1cc(-c2nnc(-c3cc4ccccc4oc3=O)o2)c(C)n1-c1ccccc1` was inactive: > 76.9 µM; that for `COc1ccc(N(CC(=O)O)S(C)(=O)=O)cc1OC` was inactive: > 76.9 µM; that for `CC(=O)N(CC(=O)Nc1nn(-c2ccccc2)nc1C(N)=O)Cc1ccccc1` was inactive: > 76.9 µM.
The value for `Cc1cccc(NC(=O)Cn2c(=O)n(Cc3ccco3)c(=N)c3c4c(sc32)COC(C)(C)C4)c1` was inactive: > 76.9 µM; that for `Cc1cccc(C)c1N(CC(=O)Nc1cccc(N(C)S(C)(=O)=O)c1)S(C)(=O)=O` was inactive: > 76.9 µM; that for `COC(=O)Nc1cc(C(F)(F)F)ccc1N1CCN(c2ccccc2)CC1` was inactive: > 76.9 µM.
As for `Cc1cc(C2C(C#N)=C(N)SC(N)=C2C#N)c(C)s1`, the Potency result is “inactive”.
Take `CCN(CC)C(=O)Cn1nnc(-c2ccc(C)o2)n1`: the Potency was inactive: > 76.9 µM.
For `O=C(CN(Cc1ccco1)C(=O)CNS(=O)(=O)c1ccccc1)NCc1ccccc1`, the Potency was inactive: > 76.9 µM.
Consider `O=C(O)C1C2C=CC(C3CC23)C1C(=O)NCCc1ccccc1` (stereo not given), for which the Potency is inactive: > 76.9 µM.
For the molecule `CCS(=O)(=O)N1CCCC(C(=O)NCc2ccccc2Cl)C1` (stereo not given), the Potency is inactive: > 76.9 µM.
Regarding `CC12C(=O)N(n3cnnc3)C(=O)C1C1C=CC2C1` (stereo not given), the Potency is inactive: > 76.9 µM.
`Nc1ccc2c(C(F)(F)F)cc(=O)oc2c1`: the Potency was inactive: > 76.9 µM.
Regarding `CC(C)(CN1CCCCC1)NS(=O)(=O)c1ccc(Cl)cc1`, the Potency is inactive: > 76.9 µM.
Regarding `Cc1ccc2cc3cc(C(=O)N(C)C4CCCCC4)oc3nc2c1`, the Potency was inactive: > 76.9 µM.
The value for `O=C(CN1CCOCC1)Nc1nc(-c2ccc3c(c2)CCN3S(=O)(=O)c2ccccc2)cs1` was inactive: > 76.9 µM.
In the case of `CCOCCn1c(N2CCN(c3ccc(OC)cc3)CC2)nc2c1c(=O)n(C)c(=O)n2C`, the Potency was inactive: > 76.9 µM.
As to `COC(=O)C1C(c2ccccc2)C(C(=O)N2CCOCC2)C1c1ccccc1` (stereo not given), the Potency is inactive: > 76.9 µM.
With `Nc1nonc1-c1noc(COc2ccccc2Cl)n1`, the Potency was inactive: > 76.9 µM.
The value for `CCOC(=O)c1c(C)[nH]c(C(=O)NCc2ccccc2OC)c1C` was inactive: > 76.9 µM.
